# Measured values published in PubChem BioAssay AID1345082 (National Center for Advancing Translational Sciences (NCATS), 2018).
# Out of some 94,000 compounds screened, about 4,000 (4.3%) were called active. This list was built around the results that the source calls inconclusive (neither active nor inactive); the mix of calls is not that of the screen. Calls follow the shape of the dose curve; as a rule, active = well fitted inhibition curve with a large enough effect; inconclusive = small, poorly fitted or top-dose-only effect; inactive = no such curve, though single readings can be large or run the other way. Where the call is inconclusive, the potency comes from a doubtful curve fit.
# Assay: Cytotoxic Profiling in NIH 3T3 Cell Line of Diverse Libraries Using Quantitative High-Throughput Screening; also: nearly all actives have a fitted effect of over 55% in size
# Conditions: NIH 3T3 viability, CellTiter-Glo ATP luminescence, 48-72 h; activity change, negative = cytotoxicity: at 96.7 µM (top of the series); series mostly up to 96.7 µM
# In short: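 Cytotoxicity is measured as loss of cellular ATP: NIH 3T3 cells (400/well) are exposed to compound for 48 or 72 hr at 37 °C, then CellTiter-Glo luminescence is imaged after 10 min at room temperature.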
# % is scaled to controls: 0 for no effect and ±100 for the full control effect; potency is read from the fitted curve at half-maximal effect; tags tell the direction and shape of the fitted curve.
SMILES,"activity change, negative = cytotoxicity",Potency,outcome
CCC(C)NC(=O)C(NC(=O)c1cccc(OC)c1)C1CCN(C(=O)c2cccc(C)c2)CC1 (stereo not given),inactive: -8.54%,–,–
O=[S+]1([O-])NC2(CCN(Cc3ccccc3C(F)(F)F)C2)CNc2ccccc21 (stereo not given),–,"inconclusive: 28.2 µM [inhibitor, partial curve]",–
COc1ccc(C(=O)N2C[C@@H]3C[C@H](C2)c2ccc(NS(=O)(=O)c4ccc(NC(C)=O)cc4)c(=O)n2C3)cc1,inactive: -11.3%,–,–
N#Cc1ccc(C(=O)N2CCCCCCNC(=O)[C@@H]3CCCC[C@@H]32)cc1,inactive: -12.7%,–,–
COCCNC(=O)C1(C)CCc2cnc(NCc3ccccc3)nc21 (stereo not given),–,active: 89.1 µM,–
CC(C)NC(=O)c1nc2cccnc2n(-c2ccc(N(C)C)cc2)c1=O,inactive: -8.08%,–,–
O=C1NC2(Cc3ccccc31)CN(CC1CCNC1)C2 (stereo not given),–,–,inactive [at 138 µM]
Cn1ccc(CN2CCn3c(nn(-c4ccc(F)cc4F)c3=O)C2)c1,inactive: -15.3%,–,–
CC1(c2ccccc2)N(Cc2ccccc2)C(=O)OC12CCN(Cc1cccnc1)CC2 (stereo not given),–,active: 100 µM,–
O=C(CCc1ccccc1)N1CC(Oc2ccccc2-c2nc(-c3ccccc3)no2)C1,–,active: 35.5 µM,–
O=C1OC[C@@H]2CCN(Cc3ccccc3F)Cc3ccc(F)cc3N12,inactive: -2.38% [at 174 µM],–,–
Cc1ccc(-c2ccc3nnc(CNC(=O)c4cc(Cl)ccc4F)n3n2)cc1,–,"inconclusive: 50.1 µM [inhibitor, partial curve, poor fit]",–
c1cc(N2CCCCC2)ccc1-c1n[nH]c(C2CCOC2)n1 (stereo not given),–,"inconclusive: 89.1 µM [inhibitor, single point]",–
COc1ccc(-c2cc(N3CCN(C(=O)c4cc(OC)cc(OC)c4)CC3)n[nH]2)cc1,–,"inconclusive: 44.7 µM [inhibitor, partial curve, poor fit]",–
CC(=O)NC1(C)CCN(Cc2cccc(-c3ccc4c(ccn4C)c3)c2)C1 (stereo not given),–,active: 79.4 µM,–
COc1ccc(F)c(-c2nc(COc3ccc(-n4cnnc4)cc3)c(C)o2)c1,–,"inconclusive: 56.2 µM [inhibitor, partial curve, poor fit]",–
COc1ccccc1-c1nc(C(=O)N2CCN(c3ncccn3)CC2)n2ccncc12,–,"inconclusive: 50.1 µM [inhibitor, single point]",–
COc1ccc(CN2CCNc3cnc(Nc4cccnc4)cc3C2)cc1O,–,"inconclusive: 56.2 µM [inhibitor, partial curve, poor fit]",–
O=C(NCC1CCCO1)c1nnn2cc(-c3ccccc3)[nH]c(=O)c12 (stereo not given),–,"inconclusive: 50.1 µM [inhibitor, single point]",–
O=C(Cc1cccnc1)N[C@H]1CCOC[C@H]1C1CCOCC1,inactive: 0.118%,–,–
